Laboratory results: PMC4336329 (PLoS ONE, 2015)
Out of some 310,000 compounds screened, about 2,200 (0.71%) showed an effect of 50% or more. Effects have a minus sign here. The list shows a part of the results.

What follows are molecules tested against human ether-à-go-go-related gene (hERG) potassium channel (human, UniProt Q12809) (assay: primary screen, population patch clamp on CHO cells stably expressing hERG).
human ether-à-go-go-related gene (hERG) potassium channel, sequence (Q12809 whole entry, looked up): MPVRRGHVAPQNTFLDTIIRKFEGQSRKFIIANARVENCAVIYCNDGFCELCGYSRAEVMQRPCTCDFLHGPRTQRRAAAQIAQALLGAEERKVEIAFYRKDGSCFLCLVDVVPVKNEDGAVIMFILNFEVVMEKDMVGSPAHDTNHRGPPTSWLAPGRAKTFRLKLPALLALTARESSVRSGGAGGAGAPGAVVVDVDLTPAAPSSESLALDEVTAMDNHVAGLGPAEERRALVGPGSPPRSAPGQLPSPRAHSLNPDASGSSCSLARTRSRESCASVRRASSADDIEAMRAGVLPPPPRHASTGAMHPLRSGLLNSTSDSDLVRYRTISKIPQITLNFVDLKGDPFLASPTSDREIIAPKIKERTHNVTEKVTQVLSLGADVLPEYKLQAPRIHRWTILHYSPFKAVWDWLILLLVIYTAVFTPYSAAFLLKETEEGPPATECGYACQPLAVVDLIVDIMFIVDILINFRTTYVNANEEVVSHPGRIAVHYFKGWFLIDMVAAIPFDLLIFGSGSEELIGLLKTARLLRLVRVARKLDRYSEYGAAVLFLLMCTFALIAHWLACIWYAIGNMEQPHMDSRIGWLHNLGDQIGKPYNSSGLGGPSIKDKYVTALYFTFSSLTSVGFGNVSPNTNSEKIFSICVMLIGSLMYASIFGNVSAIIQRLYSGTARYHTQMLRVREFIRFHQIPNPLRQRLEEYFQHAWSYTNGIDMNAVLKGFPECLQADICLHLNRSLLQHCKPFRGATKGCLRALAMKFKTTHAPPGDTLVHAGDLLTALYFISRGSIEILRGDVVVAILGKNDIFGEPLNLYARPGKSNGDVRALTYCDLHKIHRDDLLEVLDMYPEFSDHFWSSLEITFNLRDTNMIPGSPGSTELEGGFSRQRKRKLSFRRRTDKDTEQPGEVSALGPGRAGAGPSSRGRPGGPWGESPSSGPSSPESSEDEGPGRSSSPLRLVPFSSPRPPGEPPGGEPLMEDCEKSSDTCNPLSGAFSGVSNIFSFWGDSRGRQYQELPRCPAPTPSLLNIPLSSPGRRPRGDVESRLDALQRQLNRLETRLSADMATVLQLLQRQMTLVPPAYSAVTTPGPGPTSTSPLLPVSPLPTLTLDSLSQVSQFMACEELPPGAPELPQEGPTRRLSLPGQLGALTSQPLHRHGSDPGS

Compound	hERG current change (%, negative = inhibition) at 1uM
CC(=O)c1ccc(OCC(=O)Nc2cccc(S(=O)(=O)N3CCCC3)c2)cc1	14.5%
CCOC(=O)N1CCN(C(=O)c2ccc(N(Cc3ccccc3Cl)S(C)(=O)=O)cc2)CC1	10.8%
CCN(CC)S(=O)(=O)c1ccc(C(C)NC(=O)Cc2c[nH]c3ccccc23)cc1 (stereo not shown)	14.2%
CS(=O)(=O)N(CC(=O)O)c1cc(Cl)cc(Cl)c1	7.58%
Cc1ccc([N+](=O)[O-])cc1NC1OC(CO)C(O)C1O (stereo not shown)	7.5%
COC(=O)c1cc(C(=O)Nc2cc(C)on2)cc([N+](=O)[O-])c1	14.1%
CCN1CCc2c(sc(NC(=O)c3ccc4ccccc4c3)c2C(N)=O)C1.Cl	10.1%
O=S(=O)(c1cc(F)ccc1F)N1CCC2(CC1)OCCN2S(=O)(=O)c1ccccc1	3.79%
c1ccc2c(c1)OCC(c1nnc3n1-c1ccccc1SC3)O2 (stereo not shown)	6.06%
O=C(NCc1ccccn1)Nc1ccccc1	10.9%
CN1CCN(S(=O)(=O)c2ccc(SCCOc3ccc(Cl)cc3)nc2)CC1	7.43%
Cc1csc2nc(CNC(=O)CCC(=O)O)cn12	15.5%
CC(C)(C)OC(=O)N1Cc2ccccc2C[C@H]1C(=O)NCC(=O)Nc1ccc2c(c1)OCCO2	8.69%
Cc1cccn2c(=O)c3cc(C(=O)NCC4CCCO4)c(=N)n(CCN4CCOCC4)c3nc12 (stereo not shown)	-50.1%
COCc1[nH]nc2c1C(c1ccccc1F)C(C#N)=C(N)O2 (stereo not shown)	11.5%
CC(C)C[C@@H](CO)N(Cc1ccccc1)S(=O)(=O)N(Cc1ccccc1)[C@@H](CO)CC(C)C	9.28%
O=C1CCCN1CN(C(=O)c1ccc2c(c1)OCO2)c1cccc(Cl)c1	5.22%
O=C(CCCC(=O)N(CC(=O)NC1CCCCC1)CC1CCCO1)Nc1ccccn1 (stereo not shown)	-0.417%
O=[N+]([O-])c1ccc(/C=N/N2CCCCC2)cc1	12.1%
O=C(CCC(=O)NC1CCCCCC1)Nc1nnc(C(F)(F)F)s1	-1.34%
Cc1ccsc1C(=O)OCC(=O)Nc1c(C)n(C)n(-c2ccccc2)c1=O	13.4%
CN(C)c1nc(OCCOC(=O)c2ccccc2)nc(N(C)C)n1	1.21%

Compound	hERG current change (%, negative = inhibition) at 1uM
COc1ccc(-c2cc(C(=O)N3CCN(c4cccc(C)c4C)CC3)c3ccccc3n2)cc1OC	6.67%
COc1ccc(N2CCN(CCCNC(=O)C3CCCN(S(=O)(=O)c4c(C)n[nH]c4C)C3)CC2)cc1 (stereo not shown)	7.79%
Cc1cc(NC(=O)c2cc3ccccc3o2)ccc1NC(=O)c1ccccc1	13.2%
O=C(COc1ccc2ccc(=O)oc2c1)NCCCN1CCCC1=O	12.9%
N#Cc1ccc2ccn(CC(=O)NCc3ccccc3)c2c1	9.25%
CCc1nnc(NC(=O)c2ccc(OC)cc2)s1	16.9%
O=Cc1cccn1-c1ccc2ccccc2c1	-0.0861%
CC1(C)C(c2ccccc2)=[N+]([O-])C2(CCCCC2=O)N1O (stereo not shown)	1.25%
C/C(CC(=O)N1CCN(C=O)CC1)=N\NC(=O)c1ccc([N+](=O)[O-])cc1	7.62%
CCN(CC)S(=O)(=O)c1ccc(NC(=O)c2cc(-c3ccccc3)nc3ccccc23)cc1	5.97%
Cc1ccc(-c2nc3c(c(=O)c4ccccc4n3C)c(=O)n2-c2ccccc2)cc1	7.73%
COc1cc(/C=N/NC(=O)c2ccc(N3CCCC3=O)cc2)ccc1O	0.359%
CC(=O)Nc1cccc(-c2csc(Nc3cccc(C)n3)n2)c1	2.44%
COc1ccc(CCNC(=O)NC23CC4CC(CC(C4)C2)C3)cc1OC	4.15%
CC1CCc2c(sc(NC(=O)c3cccs3)c2C(=O)O)C1 (stereo not shown)	22.8%
COc1ccccc1NC(=O)COc1ccc(C(=O)OCC(=O)NC(C)(C)C)cc1OC	10.6%
Cc1cc(C(=O)OCC(=O)N(CC(C)C)c2c(N)n(Cc3ccccc3)c(=O)[nH]c2=O)c2ccccc2n1	1.51%
CNS(=O)(=O)c1cc(Nc2ncnc3sccc23)ccc1C	11.6%
Cc1nn(-c2ccccc2)c(C)c1C(=O)OCc1ccc(C#N)cc1	16.5%
COc1cccc(NC(=O)c2ccc(NC(=O)C(C)(C)C)cc2)c1	14.4%
Cc1ccccc1CN(C)C1CCN(C)CC1	20.9%
COc1ccc(Cl)cc1C(=O)NC(=S)Nc1cc(-c2nc3ccccc3[nH]2)ccc1C	12.1%

Compound	hERG current change (%, negative = inhibition) at 1uM
C/C(=N\NC(=O)Cc1cccn1C)c1ccc2ccccc2c1	11.9%
Cc1cc(=O)[nH]c2c1cnn2Cc1ccccc1	3.97%
COc1cccc(C(=O)NC2CCCN(C3Cc4ccccc4C3)C2)c1OC (stereo not shown)	0.941%
CCCc1ccc(Oc2cn[nH]c2-c2ccc(O)c(C)c2O)cc1	13.5%
CCn1c(=O)c(=O)[nH]c2cc(C(=O)N3CCN(c4ccccc4F)CC3)ccc21	12.7%
COc1ccc(CCNC(=O)COc2ccc(S(=O)(=O)NC3CCCCC3)cc2Cl)cc1OC	12.9%
CCS(=O)(=O)c1ccc2oc(SCC(=O)c3ccco3)nc2c1	1.27%
O=C(NC1CCCC1)C(c1ccco1)N(C(=O)c1csnn1)c1ccccc1 (stereo not shown)	5.46%
Cn1c(=O)c2c(nc(NCc3ccc4c(c3)OCO4)n2Cc2ccc(F)cc2)n(C)c1=O	5.06%
O=C(O)c1cn(-c2ccccc2)nc1-c1cccnc1	-2.62%
COc1cc(/C=N/NC(=O)c2cccnc2)ccc1OC(=O)c1ccco1	0.304%
CC(NC(=O)C1CCN(S(=O)(=O)c2ccccc2)CC1)c1ccccc1 (stereo not shown)	8.87%
COC(=O)c1sc(SC)c(-c2ccon2)c1C	12.8%
Cc1cccc(OCCOC(=O)c2ccc(F)c(S(=O)(=O)N3CCOCC3)c2)c1	4.87%
O=C(NCCC1=CCCCC1)C(=O)NCC(c1ccco1)N1CCN(c2ccc(F)cc2)CC1 (stereo not shown)	10.3%
Cc1c(Cl)cccc1NC(=S)N1CCCCCC1	11.5%
Cc1ccc2c(=O)cc(C(=O)NC3CCS(=O)(=O)C3)oc2c1C (stereo not shown)	14.1%
O=C(O)C1CCCCC1C(=O)Nc1cc(C(F)(F)F)ccc1Cl (stereo not shown)	18.9%
c1ccc(CSc2nnc(Cc3ccccc3)o2)cc1	20.5%
N#Cc1nc(COc2ccccc2F)oc1N1CCCCCC1	2.41%
Cc1ccc(S(=O)(=O)Cc2ccc(C(=O)NC3CCCC3)o2)cc1	13.8%
Fc1ccc(NC(=S)Nc2cccc(Cl)c2)cc1	4.64%

Compound	hERG current change (%, negative = inhibition) at 1uM
COC(=O)C1=C(c2ccc(S(C)(=O)=O)cc2)C[C@@H]2CC[C@H]1N2C(=O)NCc1ccccc1	2.04%
O=C(CCC(=O)N1CCc2ccccc2C1)N1CCN(S(=O)(=O)c2ccccc2)CC1	-6.23%
COCCCNC(=S)Nc1c(C)cc(C)cc1C	16.4%
Cc1ccc(S(=O)(=O)N2CCN(c3nn(C)c(=O)n(C)c3=O)CC2)cc1C	7.8%
COc1cc(NC(=O)COc2cc(O)c3c(c2)OC(C)(C)CC3=O)cc(OC)c1OC	-4.79%
CCCNC(=O)c1onc(CSc2ccccn2)c1C(=O)NCCC	14.2%
CN(Cc1ccccc1)C(=O)CN(C1CCCCC1)S(C)(=O)=O	4.32%
CC1(C)Cn2c(nnc2-c2cccc(O)c2)S1	-0.25%
CCN(CC)S(=O)(=O)c1ccc(N2CCOCC2)c(NC(=O)c2cc3ccccc3oc2=O)c1	16.4%
Cl.NCc1ccc2[nH]c(=O)[nH]c2c1	11.2%
Cc1cccc(C)c1NC(=S)N1CCC(N(C)CC2CCCO2)CC1 (stereo not shown)	-6.2%
Cc1ccc(-n2c(SCC(=O)NCc3ccco3)nnc2-c2cccnc2)cc1	-16.5%
O=C(CCS(=O)(=O)c1ccc(Cl)cc1)NCCC1=CCCCC1	13.7%
COc1ccc(NC(=O)CN(C)C(=O)Cc2n[nH]c(=O)c3ccccc23)cc1	16.2%
Cc1cc(C)cc(N=C2NC(=O)CS2)c1	2.9%
O=C1CCCc2nn(-c3ccccc3)c(-c3ccncc3)c21	13%
CN1C(=O)CC(N2CCN(C(=O)c3ccccc3)CC2)C1=O (stereo not shown)	-8.21%
Cc1nc(NC(=O)C2CCCCC2C(=O)O)sc1C (stereo not shown)	5.96%
CN(C)c1nc(N(C)C)n(Cc2c(Cl)cccc2Cl)n1	17.6%
CC(=O)Nc1ccc(C(=O)NCC2CCCCC2)cc1	8.14%
Cc1cccc(-c2noc(CN(C(=O)CCc3ccccc3)C(C)C)n2)c1	9.65%
O=C1N/C(=N\S(=O)(=O)Cc2ccccc2)S/C1=C/c1cc([N+](=O)[O-])ccc1O	12.5%
